The text below walks through data of PMC4336329 (PLoS ONE, 2015).

Hit rate of the full screen: of about 310,000 compounds, about 2,200 (0.71%) showed an effect of 50% or more. The effect is printed as a negative number. The list shows a part of the results.

human ether-à-go-go-related gene (hERG) potassium channel, sequence (Q12809 whole entry, looked up): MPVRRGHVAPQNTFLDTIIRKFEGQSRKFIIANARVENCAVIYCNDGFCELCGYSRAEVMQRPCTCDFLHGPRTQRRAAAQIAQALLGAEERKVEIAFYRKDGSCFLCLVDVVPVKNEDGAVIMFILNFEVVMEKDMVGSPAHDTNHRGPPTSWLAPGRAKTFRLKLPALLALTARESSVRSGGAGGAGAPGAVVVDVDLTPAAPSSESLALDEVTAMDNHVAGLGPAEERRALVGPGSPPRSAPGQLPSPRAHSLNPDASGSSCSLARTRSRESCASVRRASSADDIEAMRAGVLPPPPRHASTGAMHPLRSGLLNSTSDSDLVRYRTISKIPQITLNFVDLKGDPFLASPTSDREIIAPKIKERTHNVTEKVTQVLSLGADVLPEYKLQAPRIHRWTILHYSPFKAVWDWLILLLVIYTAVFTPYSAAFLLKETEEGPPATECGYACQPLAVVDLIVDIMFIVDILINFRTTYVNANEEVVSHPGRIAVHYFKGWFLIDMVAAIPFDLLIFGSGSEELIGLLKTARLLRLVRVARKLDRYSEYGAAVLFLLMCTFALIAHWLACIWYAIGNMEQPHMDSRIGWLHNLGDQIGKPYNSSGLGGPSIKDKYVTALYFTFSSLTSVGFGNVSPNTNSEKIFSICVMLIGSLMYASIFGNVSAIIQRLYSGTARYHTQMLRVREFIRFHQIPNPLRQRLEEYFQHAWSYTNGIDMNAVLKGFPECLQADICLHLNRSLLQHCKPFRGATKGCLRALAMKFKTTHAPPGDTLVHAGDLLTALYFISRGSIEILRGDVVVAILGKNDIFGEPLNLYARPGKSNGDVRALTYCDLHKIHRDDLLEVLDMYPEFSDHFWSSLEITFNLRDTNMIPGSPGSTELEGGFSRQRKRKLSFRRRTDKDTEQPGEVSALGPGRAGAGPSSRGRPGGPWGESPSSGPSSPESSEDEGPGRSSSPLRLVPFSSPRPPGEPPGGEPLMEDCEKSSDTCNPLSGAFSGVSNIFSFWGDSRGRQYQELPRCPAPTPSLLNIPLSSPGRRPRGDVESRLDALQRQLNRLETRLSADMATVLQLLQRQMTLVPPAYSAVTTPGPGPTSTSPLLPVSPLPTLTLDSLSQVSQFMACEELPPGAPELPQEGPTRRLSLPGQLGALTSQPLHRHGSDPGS

This experiment concerns the target human ether-à-go-go-related gene (hERG) potassium channel (human, UniProt Q12809). The experiment is described as follows: primary screen, population patch clamp on CHO cells stably expressing hERG.
Turning to `Cc1nnc(SCCCn2c(N3CCCCC3)nc3c2c(=O)[nH]c(=O)n3C)s1`, the “hERG current change (%, negative = inhibition) at 1uM” value was -4.1%.
The figure for `Cc1ccc(S(=O)(=O)N(CC(=O)N/N=C/c2ccc(F)cc2)c2cccc3cccnc23)cc1` is 9.12%.
The figure for `Cc1ccc(/C=N/N2CCOCC2)s1` is 10.9%; for `CC(=O)N(C)c1ccc(NC(=S)Nc2ccc(C(C)C)cc2)cc1.Cl` it is 12.2%; for `Cc1ccc(C)c(N(CC(=O)N2CCCCCC2)S(C)(=O)=O)c1` it is 10.9%.
In the case of `CCCCNC(=O)c1nnn(-c2ccccc2)c1N`, the “hERG current change (%, negative = inhibition) at 1uM” value amounted to 0.715%.
To `O=C(CN1CCN(S(=O)(=O)c2ccc(F)cc2)CC1)Nc1ccccc1F` belongs -8.92%.
To `O=C(CSc1nc2ccccc2s1)N1CCN(C(=O)c2ccco2)CC1` belongs -14.7%; to `Cc1cc(C)cc(N(CC(=O)N2CCc3ccccc32)S(=O)(=O)c2c(C)noc2C)c1`, -5.87%; to `CC(=O)Nc1cccc(NC(=S)Nc2ccc(F)cc2F)c1`, 3.18%.
To `CCOc1ccccc1N1CCN(CC(=O)Nc2cc(C)on2)CC1` belongs 10.8%; to `O=C(Cc1ccc(-n2cccc2)cc1)N1CCN(c2ccccc2F)CC1`, 3.88%; to `Cc1ccc(NC(C)C(=O)N/N=C/c2c[nH]c3ccccc23)cc1` (centres unmarked), 6.05%.
Regarding `c1ccc(-c2cc(-c3ccccc3)on2)cc1`, the “hERG current change (%, negative = inhibition) at 1uM” value amounted to 3.24%.
The figure for `COc1cc2c(cc1O)CC[n+]1cc3c(OC)c(OC)ccc3cc1-2` is 0.2%; for `COc1ccc(NC(C)C(=O)Nc2ccc(C(C)(C)C)cc2)cc1Cl` (centres unmarked) it is 3.39%; for `O=C1CCCC(=O)C1=C1SCCCS1` it is 14.7%.
The figure for `N#C/C(=C\Nc1ccc(Cl)cc1)S(=O)(=O)c1ccccn1` is 2.72%; for `Cc1ccn(CCC(=O)NC2CC(C)(C)Cc3c2cnn3-c2ccccc2C)n1` (centres unmarked) it is -0.399%.
The figure for `CCOC(=O)C1CCN(c2c(N3CCN(Cc4ccccc4)CC3)c(=O)c2=O)CC1` is -66.6%; for `CCNc1nc(NC(N)=S)nc(NC(C)(C)C)n1` it is 9.58%.
As for `COc1cc2sc3ccc(-c4ccc(N(C)C)nc4)cc3c(=O)c2cc1OC`, the “hERG current change (%, negative = inhibition) at 1uM” value turned out to be 14.6%.
Regarding `Nc1c(-c2ccccc2)n[nH]c1-c1ccccc1`, the “hERG current change (%, negative = inhibition) at 1uM” value amounted to 3%.
The figure for `CCOn1c(=O)c(-c2cccc([N+](=O)[O-])c2)[n+]([O-])c2ccccc21` is 14.3%; for `COc1cccc(CNC(=O)Cn2nc(C)c([N+](=O)[O-])c2C)c1` it is 11%; for `O=C(CSc1nccc(-c2cccs2)n1)Nc1ccccc1` it is 11.4%.
`CCCc1nnc(NC(=O)CC(=O)OCC)s1`: the “hERG current change (%, negative = inhibition) at 1uM” value is given as -0.758%.
To `CCCCn1nnc(NC(=S)NC(=O)c2cccs2)n1` belongs 8.66%.
To `Cc1coc2cc3oc(=O)c(CCC(=O)N[C@@H](CCCNC(N)=O)C(=O)O)c(C)c3cc12` belongs 12.1%.
The figure for `Nc1ccn(Cc2ccccc2F)n1` is 12.1%; for `Cc1cc(C)n2nc(SC(C)C(=O)Nc3ccc(Cl)cn3)nc2n1` (centres unmarked) it is 3.17%; for `CCCCn1c(O)c(/C(CC)=N/N2CCCCC2c2cccnc2)c(=O)[nH]c1=S` (centres unmarked) it is -0.161%.
For `Cc1ccc(S(=O)(=O)/C(C#N)=C/c2c(N3CCC(C(N)=O)CC3)nc3c(C)cccn3c2=O)cc1`, the “hERG current change (%, negative = inhibition) at 1uM” value is -16.7%.
To `Cc1ccc(Nc2nnc(C)c(=O)[nH]2)cc1` belongs 6.76%; to `CCOC(=O)/C(C#N)=C/c1c(Oc2cccc(C)c2)nc2ccccn2c1=O`, -10.2%.
To `O=C(/C=C/c1ccc(Br)cc1)NCCCn1ccnc1` belongs -23.9%; to `COc1ccccc1N(C)S(=O)(=O)c1ccc(C(=O)NC2CCCCC2)cc1`, 8.88%.
As to `O=C(O)C1CSC2(c3ccc(Br)cc3)CCC(=O)N12` (centres unmarked), the “hERG current change (%, negative = inhibition) at 1uM” value stood at 7.22%.
To `COC(CNC(=O)c1c[nH]c2ccc(S(=O)(=O)N3CCC4(CC3)OCCO4)cc2c1=O)OC` belongs 5.52%; to `Cc1nc(SCC#N)c2c(C)c(C)sc2n1`, 15.5%; to `Cc1ccc(SCCN2CCN(C)CC2)cc1.Cl`, 13.4%.
The figure for `O=C1CCc2cc(NS(=O)(=O)c3ccccc3)cc3c2N1CC3` is 3.85%; for `COc1ccc(C(=O)OCCc2sc[n+](CC(=O)c3ccccc3)c2C)cc1.[Br-]` it is 9.69%.
The figure for `COc1ccc(CN(C)CC(=O)Nc2ccc(N3CCOCC3)cc2)cc1OC` is 11.2%.
